MIC data for 42 test systems are collected here from the supplement of paper PMC10886265.

Holding throughout (experiment): Broth microdilution (CLSI), cation-adjusted Mueller-Hinton broth, two-fold steps from 0.25 to 128 µg/mL, 18 h at 37 °C.
Compound in one experiment: C[C@@H](O)[C@H]1C(=O)N2C(C(=O)O)=C(SCCNC=N)C[C@H]12 [Imipenem]
Compound in the next experiment: C[C@@H](O)[C@H]1C(=O)N2C(C(=O)O)=C(S[C@@H]3CN[C@H](C(=O)N(C)C)C3)[C@H](C)[C@H]12 [Meropenem]
Compound in the next experiment: C[C@@H](O)[C@H]1C(=O)N2C(C(=O)O)=C(S[C@@H]3CN[C@H](C(=O)Nc4cccc(C(=O)O)c4)C3)[C@H](C)[C@H]12 [Ertapenem]

MIC by broth microdilution (CLSI, 0.25-128 µg/mL, 18 h, 37 °C) of Gram-negative wastewater isolates picked on carbapenem-selective plates; higher = less susceptible. No active / inactive call. Isolates were selected for resistance.

As to “Enterobacter cloacae isolate primary sludge #6 (carbapenemase genes (PCR): KPC)”, the MIC is 128 µg/mL with Imipenem, 64 µg/mL in the experiment with Meropenem and 64 µg/mL with Ertapenem.
In the case of “Enterobacter cloacae isolate primary sludge #18 (carbapenemase genes (PCR): KPC)”, the MIC with Imipenem worked out at 128 µg/mL; with Meropenem, 64 µg/mL; with Ertapenem it was 64 µg/mL.
Turning to “Enterobacter cloacae isolate primary sludge #21 (carbapenemase genes (PCR): KPC)”, the results for the MIC with Imipenem, with Meropenem and with Ertapenem were 128 µg/mL, 64 µg/mL and 64 µg/mL, respectively.
In the case of “Enterobacter cloacae isolate primary sludge #35 (carbapenemase genes (PCR): KPC)”, the MIC with Imipenem, with Meropenem and with Ertapenem was 64 µg/mL each time.
As for “Enterobacter cloacae isolate primary sludge #40 (carbapenemase genes (PCR): KPC)”, the minimal inhibitory concentration (MIC) with Imipenem, with Meropenem and with Ertapenem was 64 µg/mL each time.
On to “Enterobacter cloacae isolate primary sludge #67 (carbapenemase genes (PCR): KPC)”, for which the figures for the minimal inhibitory concentration (MIC) with Imipenem, with Meropenem and with Ertapenem were 16 µg/mL, 64 µg/mL and 16 µg/mL, respectively.
As for “Enterobacter cloacae isolate primary sludge #69 (carbapenemase genes (PCR): KPC)”, the MIC in the experiment with Imipenem turned out to be 16 µg/mL; with Meropenem, 64 µg/mL; with Ertapenem, 16 µg/mL.
On to “Enterobacter cloacae isolate primary sludge #70 (carbapenemase genes (PCR): KPC)”, for which the MIC was found to be 16 µg/mL with Imipenem, 64 µg/mL in the experiment with Meropenem and 16 µg/mL with Ertapenem.
On to “Enterobacter cloacae isolate primary sludge #74 (carbapenemase genes (PCR): KPC)”, for which the values for the MIC in the experiment with Imipenem, with Meropenem and with Ertapenem were 32 µg/mL, 64 µg/mL and 16 µg/mL, respectively.
For “Enterobacter cloacae isolate primary sludge #77 (carbapenemase genes (PCR): KPC)”, in that order: 32 µg/mL, 64 µg/mL and 8 µg/mL.
In the case of “Enterobacter cloacae isolate primary sludge #85 (carbapenemase genes (PCR): KPC)”, the minimum inhibitory concentration (MIC) with Imipenem is 32 µg/mL; with Meropenem, 64 µg/mL; with Ertapenem, 16 µg/mL.
For “Enterobacter cloacae isolate primary sludge #188 (carbapenemase genes (PCR): KPC)”, in that order: 32 µg/mL, 32 µg/mL and 16 µg/mL.
Turning to “Enterobacter cloacae isolate primary sludge #192 (carbapenemase genes (PCR): KPC)”, the figures for the minimum inhibitory concentration (MIC) in the experiment with Imipenem, with Meropenem and with Ertapenem were 16 µg/mL, 64 µg/mL and 8 µg/mL, respectively.
Regarding “Enterobacter cloacae isolate primary sludge #193 (carbapenemase genes (PCR): KPC)”, the minimal inhibitory concentration (MIC) turned out to be 16 µg/mL with Imipenem, 32 µg/mL with Meropenem and 16 µg/mL in the experiment with Ertapenem.
As for “Enterobacter cloacae isolate primary sludge #194 (carbapenemase genes (PCR): KPC+GES)”, the values for the MIC with Imipenem, with Meropenem and in the experiment with Ertapenem were 16 µg/mL, 64 µg/mL and 4 µg/mL, respectively.
Regarding “Enterobacter cloacae isolate primary sludge #232 (carbapenemase genes (PCR): IMP+GES)”, the minimum inhibitory concentration (MIC) in the experiment with Imipenem came out at 16 µg/mL; in the experiment with Meropenem, 64 µg/mL; with Ertapenem, 8 µg/mL.
Consider “Enterobacter cloacae isolate secondary sludge #15 (carbapenemase genes (PCR): KPC+GES)”, for which the minimum inhibitory concentration (MIC) was found to be 16 µg/mL with Imipenem, 32 µg/mL with Meropenem and 32 µg/mL with Ertapenem.
For the test system “Enterobacter cloacae isolate secondary sludge #34 (carbapenemase genes (PCR): KPC)”, the results for the minimal inhibitory concentration (MIC) in the experiment with Imipenem, with Meropenem and in the experiment with Ertapenem were 64 µg/mL, 128 µg/mL and 64 µg/mL, respectively.
As for “Enterobacter cloacae isolate secondary sludge #59 (carbapenemase genes (PCR): KPC)”, the minimum inhibitory concentration (MIC) with Imipenem is 32 µg/mL; in the experiment with Meropenem, 64 µg/mL; with Ertapenem, 16 µg/mL.
Regarding “Enterobacter cloacae isolate secondary sludge #73 (carbapenemase genes (PCR): KPC)”, the MIC with Imipenem was found to be 16 µg/mL; in the experiment with Meropenem it was 32 µg/mL; with Ertapenem, 8 µg/mL.
Consider “Enterobacter cloacae isolate secondary sludge #77 (carbapenemase genes (PCR): KPC)”, for which the minimal inhibitory concentration (MIC) with Imipenem was 16 µg/mL; with Meropenem it was 64 µg/mL; with Ertapenem, 8 µg/mL.
For “Enterobacter cloacae isolate secondary sludge #80 (carbapenemase genes (PCR): KPC)”, in that order: 32 µg/mL, 64 µg/mL and 16 µg/mL.
For “Enterobacter cloacae isolate secondary sludge #172 (carbapenemase genes (PCR): KPC+GES)”, in that order: 32 µg/mL, 64 µg/mL and 8 µg/mL.
On to “Enterobacter cloacae isolate sewage #75 (carbapenemase genes (PCR): OXA-48)”, for which the results for the MIC with Imipenem, with Meropenem and in the experiment with Ertapenem were 128 µg/mL, 128 µg/mL and 64 µg/mL, respectively.
“Enterobacter cloacae isolate sewage #80 (carbapenemase genes (PCR): KPC)”: the minimum inhibitory concentration (MIC) with Imipenem, with Meropenem and with Ertapenem was 64 µg/mL throughout.
As for “Enterobacter cloacae isolate sewage #92 (carbapenemase genes (PCR): KPC)”, the minimum inhibitory concentration (MIC) with Imipenem, with Meropenem and in the experiment with Ertapenem was 32 µg/mL each time.
For the test system “Enterobacter cloacae isolate sewage #109 (carbapenemase genes (PCR): KPC)”, the MIC with Imipenem, with Meropenem and in the experiment with Ertapenem was 64 µg/mL each time.
On to “Enterobacter cloacae isolate sewage #122 (carbapenemase genes (PCR): KPC)”, for which the values for the minimum inhibitory concentration (MIC) in the experiment with Imipenem, with Meropenem and with Ertapenem were 32 µg/mL, 64 µg/mL and 8 µg/mL, respectively.
For the test system “Enterobacter cloacae isolate sewage #123 (carbapenemase genes (PCR): KPC)”, the MIC in the experiment with Imipenem was 32 µg/mL; in the experiment with Meropenem, 64 µg/mL; in the experiment with Ertapenem, 8 µg/mL.
Consider “Enterobacter cloacae isolate sewage #147 (carbapenemase genes (PCR): KPC)”, for which the MIC came to 16 µg/mL in the experiment with Imipenem, 32 µg/mL with Meropenem and 4 µg/mL with Ertapenem.
For “Enterobacter cloacae isolate sewage #172 (carbapenemase genes (PCR): KPC)”, in that order: 16 µg/mL, 32 µg/mL and 4 µg/mL.
In the case of “Enterobacter cloacae isolate sewage #208 (carbapenemase genes (PCR): KPC)”, the MIC with Imipenem is 8 µg/mL; with Meropenem it was 16 µg/mL; with Ertapenem, 64 µg/mL.
Regarding “Enterobacter cloacae isolate sewage #227 (carbapenemase genes (PCR): KPC)”, the MIC worked out at 8 µg/mL with Imipenem, 32 µg/mL in the experiment with Meropenem and 4 µg/mL with Ertapenem.
For “Enterobacter kobei isolate sewage #11 (carbapenemase genes (PCR): KPC)”, in that order: 16 µg/mL, 32 µg/mL and 4 µg/mL.
On to “Enterobacter kobei isolate sewage #12 (carbapenemase genes (PCR): IMP)”, for which the minimum inhibitory concentration (MIC) with Imipenem stood at 16 µg/mL; with Meropenem, 32 µg/mL; in the experiment with Ertapenem it was 4 µg/mL.
The matching figures for “Enterobacter kobei isolate sewage #17 (carbapenemase genes (PCR): KPC)”: 32 µg/mL, 64 µg/mL and 4 µg/mL.
The matching figures for “Enterobacter kobei isolate sewage #18 (carbapenemase genes (PCR): ND)”: 16 µg/mL, 64 µg/mL and 8 µg/mL.
For “Enterobacter kobei isolate sewage #20 (carbapenemase genes (PCR): KPC)”, in that order: 128 µg/mL, 128 µg/mL and 64 µg/mL.
For the test system “Enterobacter kobei isolate sewage #124 (carbapenemase genes (PCR): KPC+IMP)”, the minimum inhibitory concentration (MIC) with Imipenem was 32 µg/mL; with Meropenem, 64 µg/mL; with Ertapenem it was 8 µg/mL.
Consider “Enterobacter kobei isolate sewage #137 (carbapenemase genes (PCR): KPC)”, for which the values for the minimal inhibitory concentration (MIC) with Imipenem, with Meropenem and with Ertapenem were 32 µg/mL, 64 µg/mL and 8 µg/mL, respectively.
The matching figures for “Enterobacter kobei isolate sewage #145 (carbapenemase genes (PCR): KPC)”: 32 µg/mL, 64 µg/mL and 8 µg/mL.
For “Escherichia coli isolate primary sludge #171 (carbapenemase genes (PCR): KPC)”, in that order: 64 µg/mL, 64 µg/mL and 8 µg/mL.

As a reminder, the MIC is the smallest concentration in the dilution series that meets the test's criterion for growth inhibition.
